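Dose response: 5 concentrations. Exposure: 48 h. Format: 96-well plates. Endpoint: linear interpolation; highest concentration if not reached. At the GI50, growth is halved.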 Some entries of the source have several records that differ or are many. The list is limited to them. An entry can have further records. For some assays here: A record mostly stands for its own series of concentrations, not given here; a value can be the end of its range. For some assays here: Results that share an entry repeat one measurement across runs, samples, wells, individuals or studies. Marks in square brackets tell the records apart. Letters hold for one entry only.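 TGI: total growth inhibition.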

For four compounds, TGI and GI50 results are on record in PubChem BioAssay (NCI).

Test systems include RPMI-8226 leukemia; HS 578T breast; UACC-257 melanoma; T-47D breast; MOLT-4 leukemia; K-562 leukemia; SR leukemia; CCRF-CEM leukemia; SW-620 colon; SK-MEL-5 melanoma; NCI-H23 lung; SNB-19 CNS; NCI/ADR-RES ovarian; UO-31 renal; CAKI-1 renal; NCI-H522 lung; MALME-3M melanoma; SK-MEL-28 melanoma; OVCAR-3 ovarian; SF-539 CNS; DMS 273 small cell lung; KM12 colon; NCI-H460 lung; RXF 393 renal; OVCAR-4 ovarian; XF 498 CNS; SK-OV-3 ovarian; UACC-62 melanoma.

Common to all, as to assay: inhibition of tumour cell growth, NCI panel, 48 h

Regarding `S=C(N/N=C(/c1ccccc1)c1ccccn1)Nc1cccc(Cl)c1`, the TGI was 107 nM and > 100 µM in the assay on RPMI-8226 leukemia; 63.1 nM and 21.1 µM in the assay on HS 578T breast; 27.2 nM and 3.86 µM with UACC-257 melanoma; 675 nM and 14.3 µM with T-47D breast; 71.7 nM and > 100 µM in the assay with MOLT-4 leukemia; 23.4 nM and 14.1 µM with K-562 leukemia. Also, the TGI in the assay on SR leukemia is 1.67 µM and > 100 µM. For the same compound, in the assay on K-562 leukemia, the GI50 was < 1 nM and 38.8 nM.

Consider `NC[C@@](O)(c1ccc(Cl)cc1)c1ccc(-c2cn[nH]c2)cc1`, for which the TGI in the assay with CCRF-CEM leukemia was > 100 µM [sample A, 1 test] and 3.79 µM [sample B, 1 test]; with HS 578T breast, > 100 µM [sample A, 1 test] and 1.47 µM [sample B, 1 test]; in the assay on SW-620 colon, > 100 µM [sample A, 1 test] and 4.88 µM [sample B, 1 test]; with SNB-19 CNS, > 100 µM [sample A, 1 test] and 6.41 µM [sample B, 1 test]; in the assay on NCI/ADR-RES ovarian, > 100 µM [sample A, mean of 2 tests] and 5.81 µM [sample B, 1 test]; in the assay on UO-31 renal, > 27.7 µM [sample A, mean of 2 tests] and 2.38 µM [sample B, 1 test]. Also, the TGI in the assay on CAKI-1 renal is > 100 µM [sample A, 1 test] and 2.86 µM [sample B, 1 test]. Besides, the GI50 in the assay on SK-MEL-5 melanoma is > 100 µM [sample A, 1 test] and 3.63 µM [sample B, 1 test]; with NCI-H23 lung, > 100 µM [sample A, 1 test] and 5.46 µM [sample B, 1 test].

With `COc1cc([C@@H]2c3cc4c(c(O)c3C[C@H]3COC(=O)[C@@H]32)OCO4)cc(OC)c1O`, the GI50 in the assay with NCI-H522 lung was 0.126 nM [1 test] and 235 nM [mean of 3 tests]; in the assay with SK-MEL-28 melanoma it was 4.73 nM [1 test] and 148 nM [mean of 3 tests]; with OVCAR-3 ovarian it was 2.07 nM [1 test] and > 63.2 µM [mean of 2 tests]; in the assay on SF-539 CNS it was 1.57 nM [1 test] and 46.8 nM [mean of 3 tests]; in the assay with KM12 colon, 3.94 nM [1 test] and 45.5 nM [mean of 3 tests]; with NCI-H460 lung, 3.06 nM [1 test] and 768 nM [mean of 2 tests]. The GI50 with OVCAR-4 ovarian is 5.89 nM [1 test] and 659 nM [mean of 2 tests]; in the assay with XF 498 CNS it was 6.53 nM [1 test] and 439 nM [mean of 3 tests]; in the assay with SK-OV-3 ovarian, 2.94 nM and > 200 µM. For the same compound, the TGI with NCI-H522 lung was 0.713 nM [1 test] and 299 nM [mean of 3 tests]; in the assay on MALME-3M melanoma, 5.16 nM and > 32.1 µM; in the assay with OVCAR-3 ovarian it was 4.67 nM [1 test] and > 63.2 µM [mean of 2 tests]; in the assay with SF-539 CNS, 4.1 nM [1 test] and 61 nM [mean of 3 tests]; with DMS 273 small cell lung, 5.64 nM and > 200 µM; in the assay on NCI-H460 lung, 8.15 nM [1 test] and > 105 µM [mean of 2 tests]. Moreover, the TGI was 6.38 nM and 4.33 µM in the assay on RXF 393 renal; 9.02 nM and > 200 µM in the assay with SK-OV-3 ovarian.

In the case of `CC(=O)OCC1OC(n2c(-c3ccccc3)c(C)c(C)c(C#N)c2=S)C(OC(C)=O)C(OC(C)=O)C1OC(C)=O` (stereo not given), the GI50 with UACC-62 melanoma is > 50 µM [sample A, 1 test] and 942 nM [sample B, 1 test].
